Experimental data published in the supplement of paper PMC8728848.
Some of the results follow.

Key:
Assay in all cases: glycan array binding signal (z-score within array); higher = stronger binding
Conditions in all cases: glycan notation: IUPAC condensed, linker removed
Fuc(a1-2)Gal = target: Fuc(a1-2)Gal
Outline: (§1)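 The Consortium for Functional Glycomics database supplied 3228 glycan arrays, of which those lacking an available protein sequence were dropped. The binding signal, a within-array Z-score, was averaged across arrays of the same protein sequence and across linkers. Negative scores can be read as non-binding.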

Fuc(a1-2)Gal(b1-3)GalNAc = target: Fuc(a1-2)Gal(b1-3)GalNAc
Outline: as §1

[1] = target: Fuc(a1-2)Gal(b1-3)GalNAc(b1-3)Gal
Outline: as §1

[2] = target: Fuc(a1-2)Gal(b1-3)GalNAc(b1-3)Gal(a1-4)Gal(b1-4)Glc
Outline: as §1

[3] = target: Fuc(a1-2)Gal(b1-3)GalNAc(b1-4)[Neu5Ac(a2-3)]Gal(b1-4)Glc
Outline: as §1

Fuc(a1-2)Gal(b1-3)GlcNAc = target: Fuc(a1-2)Gal(b1-3)GlcNAc
Outline: as §1

[4] = target: Fuc(a1-2)Gal(b1-3)GlcNAc(b1-3)Gal(b1-4)Glc
Outline: as §1

[5] = target: Fuc(a1-2)Gal(b1-3)[Fuc(a1-4)]GlcNAc
Outline: as §1

Fuc(a1-2)Gal(b1-4)Glc = target: Fuc(a1-2)Gal(b1-4)Glc
Outline: as §1

Fuc(a1-2)Gal(b1-4)GlcNAc = target: Fuc(a1-2)Gal(b1-4)GlcNAc
Outline: as §1

[6] = target: Fuc(a1-2)Gal(b1-4)GlcNAc(b1-3)Gal(b1-4)GlcNAc
Outline: as §1

[7] = target: Fuc(a1-2)Gal(b1-4)GlcNAc(b1-3)Gal(b1-4)GlcNAc(b1-3)Gal(b1-4)GlcNAc
Outline: as §1

[8] = target: Fuc(a1-2)Gal(b1-4)[Fuc(a1-3)]GlcNAc
Outline: as §1

[9] = target: Fuc(a1-2)Gal(b1-4)[Fuc(a1-3)]GlcNAc(b1-3)Gal(b1-4)[Fuc(a1-3)]GlcNAc
Outline: as §1

[10] = target: Fuc(a1-2)Gal(b1-4)[Fuc(a1-3)]GlcNAc(b1-3)Gal(b1-4)[Fuc(a1-3)]GlcNAc(b1-3)Gal(b1-4)[Fuc(a1-3)]GlcNAc
Outline: as §1

Fuc(a1-2)GlcNAc = target: Fuc(a1-2)GlcNAc
Outline: as §1

Fuc(a1-2)[Gal(a1-3)]Gal = target: Fuc(a1-2)[Gal(a1-3)]Gal
Outline: as §1

[11] = target: Fuc(a1-2)[Gal(a1-3)]Gal(b1-3)GlcNAc
Outline: as §1

[12] = target: Fuc(a1-2)[Gal(a1-3)]Gal(b1-4)Glc
Outline: as §1

[13] = target: Fuc(a1-2)[Gal(a1-3)]Gal(b1-4)GlcNAc
Outline: as §1

[14] = target: Fuc(a1-2)[Gal(a1-3)]Gal(b1-4)[Fuc(a1-3)]GlcNAc
Outline: as §1

[15] = target: Fuc(a1-2)[Gal(a1-4)]Gal(b1-4)GlcNAc
Outline: as §1

[16] = target: Fuc(a1-2)[GalNAc(a1-3)]Gal
Outline: as §1

[17] = target: Fuc(a1-2)[GalNAc(a1-3)]Gal(b1-3)GlcNAc
Outline: as §1

[18] = target: Fuc(a1-2)[GalNAc(a1-3)]Gal(b1-4)Glc
Outline: as §1

[19] = target: Fuc(a1-2)[GalNAc(a1-3)]Gal(b1-4)GlcNAc
Outline: as §1

[20] = target: Fuc(a1-2)[GalNAc(a1-3)]Gal(b1-4)[Fuc(a1-3)]GlcNAc
Outline: as §1

[21] = target: Fuc(a1-2)[GalNAc(a1-4)]Gal(b1-4)GlcNAc
Outline: as §1

[22] = target: Fuc(a1-2)[GalNAc(b1-3)]Gal
Outline: as §1

Fuc(a1-3)GlcNAc = target: Fuc(a1-3)GlcNAc
Outline: as §1

B1: F17eG (Escherichia coli), Q9RH92 (protein)
chain: MTNFYKVFLAVFILVCCNISHAAVSFIGSTENDVGPSQSSYSRTHAMDNLPFVYNTGYNIGYQNANVWRISGGFCVGLDGKVDLPVVGSLDGQSIYGLTEEVGLLIWMGDTNYSRGTAMSGNSWENVFSGWCVGNYVSTQGLSVHVRPVILKRNSSAQYSVQKTSIGSIRMRPYNGSSAGSVQTTVNFSLNPFTLNDTVTSCRLLTPSAVNVSLAAISAGQLPSSGDEVVAGTTSLKLQCDAGVTVWATLTDATTPSNRSDILTLTGASTATGVGLRIYKNTDSTPLKFGPDSPVKGNENQWQLSTGTETSPSVRLYVKYVNTGEGINPGTVNGISTFTFSYQ
B1 was tested. Which “glycan array binding signal (z-score)” value (Fuc(a1-2)Gal) did it give?
The value was -0.293.

And the “glycan array binding signal (z-score)” value (Fuc(a1-2)Gal(b1-3)GalNAc)?
The value was -0.013.

And the “glycan array binding signal (z-score)” value [1]?
Its value is -0.314.

What about the “glycan array binding signal (z-score)” value [2] of the same binder?
Its value is -0.314.

And the “glycan array binding signal (z-score)” value [3]?
Its value is -0.298.

What about the “glycan array binding signal (z-score)” value (Fuc(a1-2)Gal(b1-3)GlcNAc) of the same binder?
Its value is -0.285.

What about the “glycan array binding signal (z-score)” value [4] of the same binder?
Its value is -0.263.

And the “glycan array binding signal (z-score)” value [5]?
The value was -0.314.

What about the “glycan array binding signal (z-score)” value (Fuc(a1-2)Gal(b1-4)Glc) of the same binder?
Its value is -0.315.

What about the “glycan array binding signal (z-score)” value (Fuc(a1-2)Gal(b1-4)GlcNAc) of the same binder?
Its value is -0.283.

What about the “glycan array binding signal (z-score)” value [6] of the same binder?
Its value is -0.286.

And the “glycan array binding signal (z-score)” value [7]?
The value was -0.298.

What about the “glycan array binding signal (z-score)” value [8] of the same binder?
The value was -0.314.

What about the “glycan array binding signal (z-score)” value [9] of the same binder?
The value was -0.288.

And the “glycan array binding signal (z-score)” value [10]?
Its value is -0.31.

And the “glycan array binding signal (z-score)” value (Fuc(a1-2)GlcNAc)?
The value was -0.176.

And the “glycan array binding signal (z-score)” value (Fuc(a1-2)[Gal(a1-3)]Gal)?
The value was -0.314.

What about the “glycan array binding signal (z-score)” value [11] of the same binder?
Its value is -0.312.

What about the “glycan array binding signal (z-score)” value [12] of the same binder?
Its value is -0.255.

What about the “glycan array binding signal (z-score)” value [13] of the same binder?
The value was -0.189.

And the “glycan array binding signal (z-score)” value [14]?
Its value is -0.26.

And the “glycan array binding signal (z-score)” value [15]?
Its value is -0.303.

What about the “glycan array binding signal (z-score)” value [16] of the same binder?
Its value is -0.294.

And the “glycan array binding signal (z-score)” value [17]?
The value was -0.254.

What about the “glycan array binding signal (z-score)” value [18] of the same binder?
The value was -0.277.

What about the “glycan array binding signal (z-score)” value [19] of the same binder?
The value was -0.282.

What about the “glycan array binding signal (z-score)” value [20] of the same binder?
The value was -0.3.

What about the “glycan array binding signal (z-score)” value [21] of the same binder?
Its value is -0.312.

And the “glycan array binding signal (z-score)” value [22]?
Its value is -0.313.

What about the “glycan array binding signal (z-score)” value (Fuc(a1-3)GlcNAc) of the same binder?
Its value is -0.311.
